115 sequences from the BET-seq Pho4 binding data (Le et al. 2018) can be followed below.

Some of the results follow. The energies were worked out here from pooled read counts, against the library average; single values are noisy.

For the experiment, the target named is T1, Pho4 (S. cerevisiae) (UniProt P07270).
T1 sequence: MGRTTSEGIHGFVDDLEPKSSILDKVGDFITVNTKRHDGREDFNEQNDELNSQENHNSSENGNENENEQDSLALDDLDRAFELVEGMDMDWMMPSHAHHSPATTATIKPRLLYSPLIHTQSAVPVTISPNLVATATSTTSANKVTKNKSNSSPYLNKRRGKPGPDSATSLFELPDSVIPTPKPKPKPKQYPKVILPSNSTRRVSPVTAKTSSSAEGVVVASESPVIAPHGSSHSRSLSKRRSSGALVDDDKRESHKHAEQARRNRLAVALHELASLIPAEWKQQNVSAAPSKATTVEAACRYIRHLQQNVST
Nature of the experiment: relative binding free energy (BET-seq); higher = weaker binding. The note with it: reference: library average.
In the case of TGGGACACGTGCAGGC, the “relative binding free energy” value was determined as 0.02 kcal/mol.
As for GGTGGCACGTGTCCGA, the figure is 0.05 kcal/mol.
For CGGTTCACGTGCTTGG, the “relative binding free energy” value was 0.19 kcal/mol.
For the sequence CTTAACACGTGTGGTG, the “relative binding free energy” value is -0.01 kcal/mol.
For the sequence CATTTCACGTGTAGTT, the “relative binding free energy” value is 0.33 kcal/mol.
In the case of CATTTCACGTGTGTGC, the “relative binding free energy” value amounted to 0.41 kcal/mol.
As for CGGGGCACGTGATGAG, the “relative binding free energy” value was 0.07 kcal/mol.
Take TTTTACACGTGTGTTT: the “relative binding free energy” value is 0.2 kcal/mol.
TGGGGCACGTGCGGTG: the “relative binding free energy” value is -0.11 kcal/mol.
As to TTGTACACGTGTTAAT, the “relative binding free energy” value was 0.12 kcal/mol.
Take ATTTGCACGTGGCTAT: the “relative binding free energy” value is -0.24 kcal/mol.
Take GGCCGCACGTGTTTGG: the “relative binding free energy” value was 0.08 kcal/mol.
For the sequence GTTAACACGTGAGGAT, the “relative binding free energy” value came to 0.38 kcal/mol.
Turning to GGTCGCACGTGGGCTG, the “relative binding free energy” value is -0.14 kcal/mol.
Consider GCATTCACGTGTTTGG, for which the “relative binding free energy” value worked out at 0.28 kcal/mol.
Consider GATAGCACGTGGTAGA, for which the “relative binding free energy” value is 0 kcal/mol.
As to ATACGCACGTGTGAGG, the “relative binding free energy” value was -0.03 kcal/mol.
Consider TTGGACACGTGGTCGG, for which the “relative binding free energy” value was -0.03 kcal/mol.
TGTGCCACGTGAAGAG: the “relative binding free energy” value amounted to 0.08 kcal/mol.
As for TATGTCACGTGTTGTG, the figure is 0.14 kcal/mol.
Turning to CTTGTCACGTGGTTTA, the “relative binding free energy” value was -0.05 kcal/mol.
Take GTGTTCACGTGAGATT: the “relative binding free energy” value was found to be 0.44 kcal/mol.
For ATTATCACGTGTGCAT, the “relative binding free energy” value is 0.2 kcal/mol.
Consider TGCTTCACGTGGTTAA, for which the “relative binding free energy” value is 0.11 kcal/mol.
In the case of TTTTTCACGTGTGGCA, the “relative binding free energy” value is 0.16 kcal/mol.
As to ACGGTCACGTGTGATT, the “relative binding free energy” value worked out at 0.14 kcal/mol.
Consider CAGTTCACGTGGATGT, for which the “relative binding free energy” value came out at 0.18 kcal/mol.
As for TGGTGCACGTGGCTCT, the figure is -0.03 kcal/mol.
For the sequence CGTTGCACGTGAGAGT, the “relative binding free energy” value came to 0.15 kcal/mol.
As for TTGTGCACGTGTCCAG, the figure is 0.01 kcal/mol; as for TGCTTCACGTGGGTGC, 0.15 kcal/mol; as for TGTATCACGTGATATT, 0.31 kcal/mol.
Turning to CGTTACACGTGGAGGT, the “relative binding free energy” value came to 0.03 kcal/mol.
For the sequence GTTGGCACGTGTTGAA, the “relative binding free energy” value was -0.05 kcal/mol.
For TGGTTCACGTGGCAAA, the “relative binding free energy” value turned out to be 0.22 kcal/mol.
GATAACACGTGGATGT: the “relative binding free energy” value was determined as 0.1 kcal/mol.
Turning to TTGTGCACGTGTCGTC, the “relative binding free energy” value is 0.12 kcal/mol.
For ATTATCACGTGTGTGC, the “relative binding free energy” value was 0.12 kcal/mol.
As to GTTGTCACGTGTCTAT, the “relative binding free energy” value worked out at 0.13 kcal/mol.
With CTGTGCACGTGGTCGG, the “relative binding free energy” value is -0.18 kcal/mol.
AGTGGCACGTGCGCGA: the “relative binding free energy” value was -0.22 kcal/mol.
As to TGGTCCACGTGGTCGG, the “relative binding free energy” value was -0.2 kcal/mol.
With GTATACACGTGGAGGC the figure was 0.07 kcal/mol; with TAACACACGTGGGTTT, -0.06 kcal/mol; with GCGAGCACGTGTGTGG, -0.09 kcal/mol.
With GTTGGCACGTGCTGGG the figure was -0.02 kcal/mol; with TGGTGCACGTGTCGTG, -0.05 kcal/mol.
Turning to TATTGCACGTGATGAT, the “relative binding free energy” value is 0.13 kcal/mol.
Turning to ATGTGCACGTGTAAGC, the “relative binding free energy” value stood at 0.01 kcal/mol.
As for GGGAACACGTGTAGGT, the figure is 0.04 kcal/mol; as for TCGAGCACGTGGTGAT, -0.14 kcal/mol.
For the sequence GGAGCCACGTGATGTG, the “relative binding free energy” value came out at 0.1 kcal/mol.
As to TACTGCACGTGTATGA, the “relative binding free energy” value turned out to be 0.11 kcal/mol.
Consider GGCTGCACGTGGGACG, for which the “relative binding free energy” value turned out to be 0.06 kcal/mol.
As to TTTTACACGTGGAGTG, the “relative binding free energy” value was found to be 0.12 kcal/mol.
With AGCGGCACGTGGTTCT, the “relative binding free energy” value is -0.18 kcal/mol.
GTGATCACGTGGGTTT: the “relative binding free energy” value stood at 0.07 kcal/mol.
Consider ATAGTCACGTGGAGTT, for which the “relative binding free energy” value was found to be 0.2 kcal/mol.
Take TTAGGCACGTGGGTTA: the “relative binding free energy” value was -0.22 kcal/mol.
With GGTAACACGTGTAAGG the figure was 0.11 kcal/mol.
For the sequence GATCTCACGTGTTGTG, the “relative binding free energy” value is 0.25 kcal/mol.
As to TGTTACACGTGATCTG, the “relative binding free energy” value was found to be 0.06 kcal/mol.
As for CTCTACACGTGGGTGT, the “relative binding free energy” value was -0.04 kcal/mol.
For the sequence GAAGTCACGTGGTAAG, the “relative binding free energy” value is 0.07 kcal/mol.
As for TGGCTCACGTGTTTGG, the figure is 0.16 kcal/mol.
As for TGTTGCACGTGGGTAT, the “relative binding free energy” value is -0.08 kcal/mol.
As to GGATTCACGTGATATG, the “relative binding free energy” value was found to be 0.33 kcal/mol.
With TAATTCACGTGTGGGT, the “relative binding free energy” value stood at 0.21 kcal/mol.
Take TACATCACGTGTATTG: the “relative binding free energy” value is 0.14 kcal/mol.
On to CTCGGCACGTGGGGCT, for which the “relative binding free energy” value was -0.14 kcal/mol.
Consider ATTTCCACGTGGGGGC, for which the “relative binding free energy” value worked out at 0 kcal/mol.
In the case of AATATCACGTGAGGGC, the “relative binding free energy” value stood at 0.53 kcal/mol.
Take GGTTTCACGTGTTCTT: the “relative binding free energy” value worked out at 0.29 kcal/mol.
In the case of GGTGGCACGTGAGCGA, the “relative binding free energy” value amounted to 0.1 kcal/mol.
For TATGGCACGTGGCGCG, the “relative binding free energy” value was -0.15 kcal/mol.
Consider TATGGCACGTGGCGCA, for which the “relative binding free energy” value is -0.17 kcal/mol.
On to TCTGTCACGTGGTGCG, for which the “relative binding free energy” value is -0.12 kcal/mol.
With TAGGTCACGTGGTCGC, the “relative binding free energy” value is -0.08 kcal/mol.
Consider CATGGCACGTGGGTGA, for which the “relative binding free energy” value is -0.18 kcal/mol.
As for TTGTGCACGTGCTTAA, the “relative binding free energy” value is -0.12 kcal/mol.
For AAGAGCACGTGGAGGC, the “relative binding free energy” value was -0.15 kcal/mol.
For the sequence GTAATCACGTGTAATT, the “relative binding free energy” value came out at 0.29 kcal/mol.
Consider TGTTGCACGTGTATCT, for which the “relative binding free energy” value is -0.03 kcal/mol.
As to TTAGACACGTGCTGGG, the “relative binding free energy” value is -0.21 kcal/mol.
With TAAAGCACGTGATATT the figure was -0.01 kcal/mol.
Turning to ATGAACACGTGGAGAG, the “relative binding free energy” value amounted to 0.14 kcal/mol.
With GATATCACGTGATGTA the figure was 0.39 kcal/mol; with AATTACACGTGGGCTT, -0.07 kcal/mol; with CTTTGCACGTGTTATG, -0.03 kcal/mol.
With GATGGCACGTGGCCGG, the “relative binding free energy” value was -0.03 kcal/mol.
As for GATGTCACGTGTGTAA, the “relative binding free energy” value was 0.2 kcal/mol.
In the case of CATGGCACGTGGTGGT, the “relative binding free energy” value is -0.09 kcal/mol.
With TTTCACACGTGATAGT, the “relative binding free energy” value amounted to 0.24 kcal/mol.
As to GGGGACACGTGGATAG, the “relative binding free energy” value was 0.06 kcal/mol.
Regarding GTCCGCACGTGGGAGG, the “relative binding free energy” value is -0.26 kcal/mol.
As for CTGGGCACGTGAAGGC, the “relative binding free energy” value turned out to be 0.11 kcal/mol.
With TGGGTCACGTGCGGCG the figure was -0.01 kcal/mol; with GTAAGCACGTGGAATG, -0.03 kcal/mol; with GTATACACGTGTAGGA, -0.03 kcal/mol.
As to TCGGGCACGTGAGTGG, the “relative binding free energy” value was determined as 0.17 kcal/mol.
As for CGTAGCACGTGGTGAT, the figure is -0.26 kcal/mol.
Regarding AAGTTCACGTGGAATG, the “relative binding free energy” value was 0.19 kcal/mol.
For the sequence GGGCTCACGTGTAGAT, the “relative binding free energy” value is 0.37 kcal/mol.
On to AGTTTCACGTGGTTCT, for which the “relative binding free energy” value was 0.31 kcal/mol.
As for CAACTCACGTGGTAGG, the figure is 0.41 kcal/mol; as for AGTGGCACGTGGGAGA, -0.2 kcal/mol; as for TAGTTCACGTGACTGG, 0.31 kcal/mol.
Turning to CTATACACGTGGTGGT, the “relative binding free energy” value is -0.18 kcal/mol.
With GTATACACGTGGGGAG, the “relative binding free energy” value turned out to be 0.01 kcal/mol.
Take GTTCTCACGTGGTCTG: the “relative binding free energy” value stood at 0.1 kcal/mol.
As to GTGGGCACGTGTTAAG, the “relative binding free energy” value was -0.06 kcal/mol.
As to CTTTACACGTGCGTGT, the “relative binding free energy” value is 0.06 kcal/mol.
As to TGGCGCACGTGACGGG, the “relative binding free energy” value is -0.02 kcal/mol.
In the case of TGTGTCACGTGTGTAA, the “relative binding free energy” value worked out at 0.07 kcal/mol.
For the sequence GAATCCACGTGGTGGT, the “relative binding free energy” value amounted to 0.04 kcal/mol.
